# Data from the RNAGym collection of RNA variant scans (doi:10.7554/elife.90254).
# Read counts are not given, so values of variants with three or more changes are uncertain.
# B1: OR4K15 (parent)
# chain: GUUAACGGUCAUAGGCCAUGGAAACUAGGAGCACCAUUUCGCUGCCAGUGAAGAAAUGAACAAAGAAAAUCUGGGCCAGGCAGGCAUCAAAAGAAAUAGUCUUGCGCUCAACCAGAAAGUCUGUAAUCAUUUUAAGGGUA
# Variants of: B1
# Assay: self-cleavage, relative activity (ratio to wild type); higher = more cleavage; in vitro, sequencing; the parent is a self-cleaving ribozyme
row,Variant,self-cleavage
1,A64G A118G A125C,0.17
2,A66U A89G A116G U133A A135G G138U U139A,0
3,A66G A117U U139G,1.21
4,A64G A69G A90G U122C U133A A134G,1.91
5,C61A A68G U72A A129U,0.18
6,A66G C88A A117C,0.3
7,A66G A68G A78G U102C C113U A135G,0.02
8,A62G A117G A140U,0.98
9,A62G U120C A135U,0.51
10,A67U A91G A134G,1.23
11,A63G A69U A96G U127A,2.17
12,A64G A118G A126U,2.68
13,A67G A78U A82G,0.24
14,A62G G65C A111G U132C U133A G138U,0.02
15,A62U G65A U127A,2.8
16,A62G A66G U87C A114U,0.02
17,A67G A91G A135G,1.42
18,A66G A96G C112U,0.01
19,A66G A82U A90G,0.03
20,A64U U72C A94G,0.02
21,A63G A96G U102C U122G,1.66
22,A63G U103C U120C,0.28
23,A66U A82C U87C A116G,0.1
24,A64G U70A A129U,0.72

row,Variant,self-cleavage
1,A67G A96G U100C,2.31
2,A62G A86G U131C,1.05
3,A62G A114G U120A,0.2
4,A62U U87C U108C,0.01
5,A62C U72A A86G A116G,0.05
6,A62U U70C U127C,0.32
7,A62U A69U U133C,1.94
8,A62U A91G G106A A111G U132C,0
9,A64U A66G A90G A135G,0.69
10,A66U U70C A86U A91G,0.45
11,A67G A89G U103C,0.82
12,A67G A90U U100C,2.86
13,A62G G74U G80A A86G,0.19
14,A67G A95G U127A,2.65
15,A62G A92G A110U U124C A125G,1.34
16,A60U A111C U132C,0.01
17,A63G A114U A125G,0.01
18,A64G A66U A86U,2.24
19,A64G U87C U108C A116G,0
20,A66G A67G C105A,0.04
21,A67G A86G A114U,0.07
22,A63G U102C A116G,1.93
23,A63G U120A U122C,0.89
24,A64U A89U U127C,1.15

row,Variant,self-cleavage
1,A63G A67G A129U,0.95
2,A62G A98C G99A A140G,0.29
3,A63G A95G U130C,1.71
4,A67G A68G U70C,0.86
5,A67G A90G A98U U108C,0.01
6,A62G U100C C107U,0.02
7,A62G A94G A96G U100C U127C,2.05
8,A64U U124A A126G,0.6
9,A66G U108C G137A,0.01
10,A62G G73A U124C,0.1
11,A66G C121A A135U,2.41
12,A63G U100G C112G,0.02
13,A62G A78G A82G U122C U132C,0.03
14,A63G G80U A117G,0.04
15,A62C U72G U108C,0
16,A66G A86G A125G,0.15
17,A63G U72C A82U,0.15
18,G65A U100A U102A U130G,0.03
19,A66G U102C A135G,2.13
20,A62G A66G A89G A111G A125G,0.01
21,A66G U124C U130C,0.67
22,A62G A111U U127C,0.04
23,A68G A86G U87A,1.27
24,A62G G83A A117U,1.07

row,Variant,self-cleavage
1,A66G U108C A140G,0.01
2,A62U A66G A86U A91G A92G,1.17
3,A62G A69G U70C A110G A118G U132C A135U A140G,0.01
4,A67G A68G U131C,1.11
5,A62G U87C U102C,2.1
6,A63U A96G U103G U108C,0.01
7,A62G A68G A91G U131C,0.69
8,A68G A91G U102C,1.78
9,A60U U102C U103C,0
10,A67G U87C U122C A129G U130C,0.46
11,A68G A89U A126G,1.07
12,A64C A69G A118G U122C,0.55
13,A62G U72C C85U,0.03
14,A62G A117U A140G,0.53
15,A63G A94G U100C,2.61
16,A64G U70C C71U A78G A82C,0.25
17,A64G U72C G83U,0.43
18,A67U A90C U103C U120A U131G,0.47
19,A63U A89U A91G A95U,1.91
20,A63G A78C U102C,0.35
21,A63G U87A A89G,1.7
22,A67G A118C U120C,0.44
23,A67G A89U A111U,0.33
24,A62G A66G A78G U108A,0.04

row,Variant,self-cleavage
1,C61U A64G U108C,0.02
2,C61G G99U U100C U108C,0
3,A63G A95G A98U,2.67
4,A64G A91U A96G U100C,2.44
5,A62G U108A A126G U132A U139C,0
6,A68G A86G A126G,0.84
7,A64G U97C A98G U103C,0.61
8,A62G U108G U131C,0
9,C61A A90G U131C,0.7
10,A67G U72C A95G A96G U120C,0.11
11,A63G A89U A95G U108G A110G U130C,0.01
12,A67G A82U A126U,0.03
13,A62G A78U A117U A126U G138A,0.18
14,A62G A116U U122C,0.34
15,A63G A67U A96G U108C,0
16,A63G A95G U132C,1.98
17,A68G A91G U122C,0.35
18,G65U U72A A111G,0.02
19,A62G A82G A91C A117G,0.57
20,A63G U72C A126C,0.11
21,A64G A94G A96U A111G U127C,0.03
22,A68G A92G A118G,0.61
23,A66G U72C U87C,0.26
24,A68C A69G A135G,0.75

row,Variant,self-cleavage
1,A62G A68C A95U,1.82
2,A67G A117G U120C A126G,0.48
3,A63U A94G A116U,0.23
4,A62G A92G A116G,0.72
5,A66G A98C A116G A135G,0.86
6,C61U U97C U132C,1.24
7,A64G A95G C113U,0.29
8,A64G U72C U100A,0.07
9,A66G A90G U139A,1.78
10,A64G A116U A134G A135G,0.03
11,A63G G83A U97A,2.59
12,A66U A68G U102C,1.97
13,A62G A92G U122C U130C,1.1
14,A66G A78G U108A,0
15,A66G A78G U108C,0.03
16,A67U A68G U97C A110G,0.2
17,A67G A86G U87C,0.86
18,A60U U72A U102C,0.43
19,A63G U108A A116G,0.01
20,A67G A82G U97C C105G,0.02
21,A64G A69G U87A,0.66
22,A66G A68G A111G,0.06
23,A64C A94G A116G A134G,0.22
24,A62G U72A A82U,0.27

row,Variant,self-cleavage
1,A63U A86G A92G,0.97
2,A62G A111G A117G U122A,0
3,A66G A69G A116G,1.16
4,A62G U120C U130A,0.73
5,A62G U120C U130C,0.76
6,A64G U70C U108C A114G U139C,0
7,A64G A111U A116G A118G U124C,0
8,A67G A111G A140G,0.02
9,A62U A95G U100C U122C,1.61
10,A68G A86G A95G A96G,0.95
11,A63C A82G A114U,0.05
12,A62G A89G U131C,1.33
13,A67G A114U A117G,0.02
14,A63G A67U U87C U103C U108C,0.02
15,A64G A90G A91G A92G A96U A114U,0.05
16,A62G A78U U132C,0.21
17,A63G A68G U130C,0.41
18,A63G A91G U127C,1.34
19,A64U A66U A116G,0.62
20,A63G A68G A95G,1.48
21,A63G A78G A98U A110G,0.01
22,A62U A68G A78G A91G U102A U131G,0.02
23,A62U A69G A78G U132C,0.19
